Results: PubChem BioAssay AID1745853 (National Center for Advancing Translational Sciences (NCATS), 2022)
Where “and” joins values, the source holds several entries; their conditions need not be identical. Identical values can stand only once. This is one part of the list. The main result of the screen is listed elsewhere. These columns were measured beside it and carry no call.

Columns and labels:
Assay in all cases: Primary Screen for Target Class Profiling of Small Molecule Inhibitors of Methyltransferases
[1] = target: Glycine N-methyltransferase (Homo sapiens) (UniProt Q14749); details: purified enzyme, MTase-Glo SAH luminescence; measured here: GNMT inhibition; at 40 µM; stronger effect = lower value
Procedure, shortened: (§1)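 Each enzyme was reacted with SAM and its substrate, with compounds tested once at 40 uM; SAH formed was read by MTase-Glo luminescence.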

[2] = target: Guanidinoacetate N-methyltransferase (Homo sapiens) (UniProt Q14353); details: purified enzyme, MTase-Glo SAH luminescence; measured here: GAMT inhibition; at 40 µM; stronger effect = lower value
Procedure, shortened: as §1

[3] = target: Histamine N-methyltransferase (Homo sapiens) (UniProt P50135); details: purified enzyme, MTase-Glo SAH luminescence; measured here: HNMT inhibition; at 40 µM; stronger effect = lower value
Procedure, shortened: as §1

[4] = target: Nicotinamide N-methyltransferase (Homo sapiens) (UniProt P40261); details: purified enzyme, MTase-Glo SAH luminescence; measured here: NNMT inhibition; at 40 µM; stronger effect = lower value
Procedure, shortened: as §1

[5] = target: Phenylethanolamine N-methyltransferase (Homo sapiens) (UniProt P11086); details: purified enzyme, MTase-Glo SAH luminescence; measured here: PNMT inhibition; at 40 µM; stronger effect = lower value
Procedure, shortened: as §1
% is set by controls: 0 for no effect and ±100 for the full control effect.

Structure (SMILES) | activity change, negative = inhibition [1] | activity change, negative = inhibition [2] | activity change, negative = inhibition [3] | activity change, negative = inhibition [4] | activity change, negative = inhibition [5]
Cn1c(=O)n(C)c2cc(S(=O)(=O)N3CCN(C4CCCCC4)CC3)ccc21 | 1.07% | 0% | -61.4% | 12.7% | 2.48%
COCCNc1nc(C)nc2c1CCN(C(=O)c1ccoc1)CC2 | -4.6% | -4.46% | -1.43% | -10.1% | -4.39%
CC1(C(=O)NC2CCCC2)Cn2c(ccc2-c2ccco2)C(=O)N1CCc1ccc(Cl)cc1 (configuration not stated) | -6.35% | 4.72% | 2.6% | -4.58% | -2.8%
CCCc1cnc(C)nc1N1CC[C@@H](NC(=O)c2cnccn2)[C@H](O)C1 | -11.8% | -6.01% | -0.397% | -9.05% | -1.76%
CCOC(=O)[C@H](CCc1ccccc1)N[C@@H](C)C(=O)N1C2CCCCC2C[C@H]1C(=O)O (some centres not stated) | 2.42% |  | 9.14% |  | 
CN(CCCOc1ccc(Cc2ccccc2)cc1)CCC(=O)O | 5.42% and -2.71% | 14.3% and 5.29% | 9.8% and 10.7% | 0.842% and -12.8% | 7.95% and 5.25%
CC1CCCCC1NC(=O)C1(C)Cn2c(nc3ccccc32)C(=O)N1CCCc1ccccc1 (configuration not stated) | 0.128% | 0% | 3% | 4.82% | 0.858%
CCC1c2ccc(C)n2CCN1C(=O)Nc1cccc2c1CCCC2 (configuration not stated) | 0.336% | 0% | -8.01% | -3.29% | -0.484%
Cn1c(=O)n(C)c2cc(S(=O)(=O)N3CCN(c4ccccc4)CC3)ccc21 | 0.804% | 5.7% | 7.41% | 12.7% | 2.51%
Cn1c(=O)c2ccc(C(=O)NC3CCCCC3)cc2n2c(=O)n(Cc3c(F)cccc3Cl)nc12 | -0.575% | -1.91% | 4.18% | -1.26% | -2.45%
COc1ccc(CN2C(=O)c3cc4oc(C)cc4n3CC2(C)C(=O)NC2CCCCC2)cc1 (configuration not stated) | -0.036% | 0% | 2.76% | -6.44% | 0.209%
C=C1C(O)C(O)C2(CC3C(C)=CCC4C(C)(CO)CCCC34C)OC2C1O (configuration not stated) | -3.45% | -2.17% | 9.54% | -18.4% | -13.2%
COCc1nc(CCNC(=O)C2CC2)no1 | -0.696% | -3.56% | 1.55% | 1.8% | -0.439%
O=C(Cn1c(=O)oc2cc(S(=O)(=O)N3CCCC3)ccc21)Nc1ccccn1 | -0.294% | 4.25% | 5.46% | 8.64% | -5.01%
COc1ccc(NC(=O)Nc2cnc3c(c2)CCC3)cc1 | -6.23% | -4.41% | -32.7% | 0.26% | -5.47%
CN(Cc1ccccc1)c1ccc(C(=O)N2CCC(CN3CCCC3=O)CC2)cn1 | -3.89% | -2.02% | -2.55% | -9.88% | -3.27%
O=C(Nc1ccc(F)cc1)N1CCc2ccccc2C1c1ccc(C(F)(F)F)cc1 (configuration not stated) | -9.14% | -35.2% | -1.99% | -46.3% | -9.69%
C=C1C(=O)O[C@@H]2/C=C(\CO)CC/C=C(\CO)[C@H](OC(C)=O)C(OC(=O)C(C)CC)C12 (some centres not stated) | 3.21% | 6% | 5.57% | -8.41% | 4.98%
C=C(C)C(C)C1OC23CC4(CO2)C(CCC2C5(C)CCC(OC6OCC(O)C(OC7OC(CO)C(O)C(OC8OCC(O)C(O)C8O)C7O)C6OC6OC(CO)C(O)C6O)C(C)(C)C5CCC24C)C3C(C)(O)C1OC(C)=O (configuration not stated) | 4.47% | 14.5% | 6.54% | 2.14% | 11.6%
C=C1C(OC(C)=O)C(=O)C2C(C)(C)C(OC(C)=O)CCC2(C)C1CC(OC(C)=O)/C(C)=C/COC(C)=O (configuration not stated) | -3.89% | -3.17% | 3.09% | -12.9% | 0.899%
COc1ccc(CNC(=O)c2cc3n(n2)CC(C)(C(=O)NCc2ccc(C)cc2)N(C)C3=O)cc1OC (configuration not stated) | -0.143% | 3.65% | 0.465% | 3.93% | 2.81%
CCS(=O)(=O)N1CCC2(CCC2OC)CC1 (configuration not stated) | -2.94% | 0.171% | 0.945% | -5.55% | -8.65%
COc1cccc(CN2Cc3cc(NS(=O)(=O)c4ccccc4)ccc3OCC2=O)c1OC | -9.09% | -7.87% | -6.5% | -11.7% | -13.2%
CC1(C(=O)NC2CCCCCC2)Cn2c(cc3sccc32)C(=O)N1C1CCCC1 (configuration not stated) | 4.37% | 0% | 8.78% | 11.4% | 5.36%
CC(C)CCNC(=O)C1(C)Cn2nc(C(=O)NCc3ccc(N(C)C)cc3)cc2C(=O)N1C (configuration not stated) | 10.7% | 0.256% | 9.48% | 0.202% | 6.32%
CC(C)c1ccc2c(c1)C(=O)CC1C(C)(C(=O)O)CCCC21C (configuration not stated) | -3.19% | -8.82% | 3.18% | -22.1% | -4.61%
O=C(C[C@@H]1C(C(=O)O)=CO[C@@H](O[C@@H]2O[C@H](CO)[C@@H](O)[C@H](O)[C@H]2O)/C1=C\CO)OCCc1ccc(O)cc1 | -0.178% | 1.64% | 1.73% | -10.1% | 6.05%
COc1ccc(CCN2C(=O)c3cc4occc4n3CC2(C)C(=O)NC2CCCCCC2)c(OC)c1 (configuration not stated) | -5.89% | 2.38% | -0.707% | -10.6% | -4.82%

Structure (SMILES) | activity change, negative = inhibition [1] | activity change, negative = inhibition [2] | activity change, negative = inhibition [3] | activity change, negative = inhibition [4] | activity change, negative = inhibition [5]
Cc1ccc(NC(=O)CSc2nnc3n(C)c(=O)c4ccc(C(=O)NC5CCCCC5)cc4n23)c(C)c1 | 0.754% | 1.71% | 0.226% | 6.15% | 5.27%
Cc1noc(-c2cccs2)c1C(=O)NCc1ccco1 | -7.72% | 0.041% | -1.94% | -3.28% | 0.509%
COCCNC(=O)c1ncn2c1C(=O)N(C1CC1)C(C)(C(=O)NCc1cccc(C)c1)C2 (configuration not stated) | 4.3% | 1.79% | 13.8% | 5.36% | 10%
Cc1ccc(Cn2nc3n(Cc4ccc(C)cc4)c(=O)c4ccc(C(=O)NC(C)C)cc4n3c2=O)cc1 | 4.24% | 0% | 3.85% | 6.01% | 4.2%
Cc1ccc(C#N)c(N2CCN(C3CCCC3)C(CCO)C2)n1 (configuration not stated) | -0.878% | 2.25% | 2.42% | 2.47% | -10%
O=C1CCN(C(=O)CCCc2ccccc2)CCCC(CO)CCN1 (configuration not stated) | -0.847% | 2.09% | 0.249% | -5.54% | 13.4%
CCC(C)NC(=O)c1ccc2c(=O)n(C3CC3)c3nn(CC(=O)Nc4cccc(C)c4)c(=O)n3c2c1 (configuration not stated) | -0.29% | 2.12% | 4.89% | -0.374% | -1.62%
CC(=O)OC1C(O)CC(O[C@@H]2O[C@H](CO)[C@@H](O)[C@H](O)[C@H]2O)C2CCC3C(=O)OC(c4ccoc4)CC3(C)C21 (some centres not stated) | 0% | 0.167% | 5.51% | -8.5% | 1.59%
CCC(COC)n1nnc2c(Nc3ccc(OC)cc3C)nc(C)cc21 (configuration not stated) | 0.544% | 1.74% | 10.5% | -16.6% | -6.03%
CC1(C(=O)NC2CCCCCC2)Cn2c(ccc2-c2ccccc2)C(=O)N1CCC1=CCCCC1 (configuration not stated) | -1.92% | 0.943% | -4.45% | 1.04% | -2.61%
COc1ccc2cc3n(c2c1)CC(C)(C(=O)NCC1CCCO1)N(Cc1ccc(F)cc1)C3=O (configuration not stated) | 5.99% | 0.679% | 8.61% | 6.54% | 4.42%
Cc1ccccc1Cn1nc2n(C(C)C)c(=O)c3ccc(C(=O)NC4CCCCC4)cc3n2c1=O | 8.31% | 0.82% | 11.5% | 8.01% | 7.96%
COC(=O)CCNC(=O)C1CN(S(=O)(=O)c2cccs2)CC12CCCCC2 (configuration not stated) | -5.03% | -2.39% | -1.02% | -2.06% | 1.7%
COc1ccccc1CNCCCCCCNCCCCCCCCNCCCCCCNCc1ccccc1OC | -7.36% | 0.887% | -56.1% | -13.4% | -4.63%
CC[C@@H](N)CNc1ccnc(-c2cc(-c3cnn(C)c3)ccc2O)n1 | -8.21% | -3.1% | -21.9% | -23.9% | -12%
C[C@@H]1O[C@@H](O[C@H]2[C@H](OC(=O)[C@]34CCC(C)(C)C[C@H]3C3=CCC5[C@@]6(C)CC[C@H](O[C@@H]7O[C@H](C(=O)O)[C@@H](O)[C@H](O)[C@H]7O[C@@H]7O[C@H](CO)[C@H](O)[C@H](O)[C@H]7O)[C@@](C)(C=O)C6CC[C@@]5(C)[C@]3(C)C[C@H]4O)O[C@H](C)[C@H](O[C@@H]3O[C@H](C)[C@H](O)[C@H](O)[C@H]3O)[C@@H]2O)[C@H](O)[C@H](O)[C@H]1O[C@@H]1OC[C@@H](O)[C@H](O[C@@H]2O[C@H](CO)[C@@H](O)[C@H](O)[C@H]2O)[C@H]1O (some centres not stated) | 2.16% | 9.67% | 7.48% | 0.797% | 10.1%
COc1cc(OC(F)(F)F)ccc1C(=O)N1CCC(C)(C(=O)O)CC1 | -2.89% | -1.36% | -0.224% | -5.19% | 0.209%
CC(C)CN(C1CCN(C)CC1)C1CN(C(=O)c2cccs2)C1 | -1.14% | -0.736% | -6.03% | -8.52% | 13.3%
CC1(C)CC2C3=CCC4C5(C)CCC(OC6OC(CO)C(O)C(OC7OC(CO)C(O)C(OC8OC(CO)C(O)C(OC9OC(COC%10OC(CO)C(O)C(O)C%10O)C(O)C(O)C9O)C8O)C7O)C6O)C(C)(C)C5CCC4(C)C3(C)CCC2(C(=O)O)CC1O (configuration not stated) | -3.71% | 0.969% | 1.5% | -12.1% | -3.14%
C=C1C[C@@]23CC[C@@H]4[C@](C)(C(=O)O)CCC[C@@]4(C)C2=CC[C@H]1C3 | 0% | 2.79% | 11.6% | -16.8% | -1%
Cc1noc(C)c1S(=O)(=O)NCCc1noc(-c2ccccc2)n1 | -2.19% | -0.035% | 1.27% | -0.885% | 1.35%
CCCCCCOc1cc2c(cc1N(C)c1ncc(C(=O)O)cn1)C(C)(C)CCC2(C)C | 7.45% | 8.92% | 4.82% | -16.7% | 1.62%
O=C(Nc1ccc(F)cc1)N[C@H]1[C@H](O)[C@@H](N2CCOCC2)[C@@H]2OC[C@H]1O2 | -1% | -2.39% | 1.31% | -6.31% | 13%
CC(C)OCCCn1c(=O)c2ccccc2n2c(-c3ccc(O)cc3)nnc12 | -7.73% | 2.58% | -4.2% | 2.03% | -6.45%
CN1CCN(CCN2C(=O)c3ccc(-c4ccco4)n3CC2(C)C(=O)NC2CCCC2)CC1 (configuration not stated) | -0.225% | 3.23% | 1.38% | 7.41% | 0.251%
CC(C)c1noc(N2CCC(COc3ccc(-c4ccc(S(C)(=O)=O)cc4)nc3)CC2)n1 | 3.01% | 2.87% | 11% | -16.3% | -3.48%
CC(C)CCn1c(=O)c2ccccc2n2c(=O)n(CC(=O)NC3CCCCC3)nc12 | -2.37% | 2.44% | 2.65% | -14.5% | -1.93%
